Laboratory results published in PMC4336329 (PLoS ONE, 2015).
The whole screen tested about 310,000 compounds, of which about 2,200 (0.71%) showed an effect of 50% or more. Effects have a minus sign here. The list shows a part of the results.

target: human ether-à-go-go-related gene (hERG) potassium channel (human, UniProt Q12809); assay: primary screen, population patch clamp on CHO cells stably expressing hERG
Sequence (Q12809 whole entry, looked up): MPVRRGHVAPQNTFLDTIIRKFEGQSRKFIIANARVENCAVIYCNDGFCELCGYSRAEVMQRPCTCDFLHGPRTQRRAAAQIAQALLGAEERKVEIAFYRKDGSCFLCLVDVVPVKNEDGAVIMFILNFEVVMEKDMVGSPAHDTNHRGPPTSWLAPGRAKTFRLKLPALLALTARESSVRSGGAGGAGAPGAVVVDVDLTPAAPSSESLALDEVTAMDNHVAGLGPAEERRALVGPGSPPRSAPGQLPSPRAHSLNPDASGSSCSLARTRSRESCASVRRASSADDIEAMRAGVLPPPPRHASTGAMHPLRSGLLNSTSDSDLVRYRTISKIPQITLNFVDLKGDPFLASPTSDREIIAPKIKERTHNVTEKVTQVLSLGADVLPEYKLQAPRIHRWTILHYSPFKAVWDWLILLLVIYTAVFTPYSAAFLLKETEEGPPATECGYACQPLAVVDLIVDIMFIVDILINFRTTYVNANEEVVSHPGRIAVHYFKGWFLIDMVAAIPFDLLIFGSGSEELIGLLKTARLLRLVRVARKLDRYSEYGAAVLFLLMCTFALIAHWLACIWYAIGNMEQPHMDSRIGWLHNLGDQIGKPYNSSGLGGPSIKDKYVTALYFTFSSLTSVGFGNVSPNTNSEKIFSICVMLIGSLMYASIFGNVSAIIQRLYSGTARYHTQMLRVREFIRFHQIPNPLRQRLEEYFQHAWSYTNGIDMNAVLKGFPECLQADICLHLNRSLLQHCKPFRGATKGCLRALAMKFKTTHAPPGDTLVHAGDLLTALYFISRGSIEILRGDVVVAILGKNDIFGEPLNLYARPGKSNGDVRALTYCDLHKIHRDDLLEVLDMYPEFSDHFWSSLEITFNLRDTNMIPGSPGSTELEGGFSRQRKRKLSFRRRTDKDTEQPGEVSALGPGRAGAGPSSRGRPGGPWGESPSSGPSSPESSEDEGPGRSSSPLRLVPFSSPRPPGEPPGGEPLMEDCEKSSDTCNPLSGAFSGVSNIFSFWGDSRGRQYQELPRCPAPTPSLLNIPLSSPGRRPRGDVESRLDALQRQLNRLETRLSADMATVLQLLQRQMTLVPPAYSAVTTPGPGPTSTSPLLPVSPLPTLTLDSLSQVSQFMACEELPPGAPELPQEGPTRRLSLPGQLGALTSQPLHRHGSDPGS

Row | Compound | hERG current change (%, negative = inhibition) at 1uM
1 | COc1ccc(C)cc1NC(=O)CN1CCN(c2ccc(F)cc2)CC1 | -8.46%
2 | CS(=O)(=O)c1ccc([C@@H](O)[C@@H](CF)NC(=O)C(Cl)Cl)cc1 | -2.82%
3 | COC(=O)c1ccc(CSc2nc3sc(C)c(C)c3c(=O)[nH]2)cc1 | 2.36%
4 | C/C(=N\NC(=O)c1cc(-c2cccnc2)nc2ccccc12)c1ccccc1O | -7.84%
5 | COc1ccccc1OCc1nnc(SCC(=O)Nc2ccc(C)cc2)n1C | 3.43%
6 | COCCN(C(=O)CSc1nc2ccccc2c(=O)n1CC(C)C)c1c(N)n(Cc2ccccc2)c(=O)[nH]c1=O | 11.8%
7 | CCOc1ccccc1C(=O)Nc1c[nH]c(=O)[nH]c1=O | 14%
8 | CNc1nc(C23CC4CC(CC(C4)C2)C3)cs1 | 21.7%
9 | Cc1ccc(/C=N/NC(=O)Cn2ccc(C(F)(F)F)n2)o1 | 6.89%
10 | COc1cc2c(cc1OC)CN(C(=S)Nc1ccccc1Cl)CC2 | 6.57%
11 | O=C(OCC(=O)N1CCN(C(=O)c2ccco2)CC1)c1ccccc1C(=O)c1ccccc1 | 0.0205%
12 | CCc1cc(=O)oc2cc(C)cc(OC(C)C(=O)O)c12 (centres unmarked) | -1.9%
13 | CCC(C)[C@H](NC(=O)NCCC1=CCCCC1)C(=O)OC (some centres unmarked) | 7.96%
14 | Cc1sc2ncnc(-n3cnc4ccccc43)c2c1C | 6.66%
15 | O=S(=O)(Nc1ccc(S(=O)(=O)Nc2ccccc2)cc1)c1ccccc1 | -1.25%
16 | COC(=O)c1cccc(NC(=S)NCc2ccc(F)cc2)c1 | 10.7%
17 | O=C(COC(=O)/C=C/c1ccc2c(c1)OCO2)NC1CCS(=O)(=O)C1 (centres unmarked) | 6.45%
18 | COc1cccc(NC(=O)CN(C)C(=O)Cc2c(C)nc3ccccc3c2C)c1 | -17%
19 | O=C(COC(=O)c1cc([N+](=O)[O-])ccc1N1CCOCC1)Nc1ccccc1OC(F)F | 10.1%
20 | COCCSc1nnc(NC(=O)CS(=O)(=O)c2ccc(C)cc2)s1 | 14.4%
21 | Cc1ccc(OCC(=O)N2CCc3ccccc3C2)c(C)c1 | 15.4%
22 | O=C(CCN1CCCCC1)Nc1ccc(Br)cc1 | -6.16%
23 | O=C(CCN1C(=O)c2ccccc2S1(=O)=O)Nc1ccccc1O | 3.78%

Row | Compound | hERG current change (%, negative = inhibition) at 1uM
24 | Cc1ccc2oc(-c3cccc(NC(=O)Cc4cccs4)c3)nc2c1 | 11.6%
25 | O=C(c1ccco1)c1cn[nH]c1-c1ccc(Cl)cc1O | 3.82%
26 | COc1ccc(-n2c3c(cc(C#N)c2=O)C(=O)CCC3)cc1 | 8.17%
27 | CC1=C(CC(=O)O)c2cc(F)ccc2/C1=C/c1ccc(S(C)=O)cc1 (centres unmarked) | 13.7%
28 | COc1ccc(N(C(=O)Cc2cccs2)C(C(=O)NC2CCCC2)c2ccncc2)cc1OC (centres unmarked) | 13.5%
29 | C=C(C)C(=O)Oc1ccc(N2C(=O)[C@@H]3C4C=CC(C4)[C@@H]3C2=O)cc1 | 15.7%
30 | O=C(NC1CCN(C(=S)Nc2ccc(Cl)cc2)CC1)c1ccco1 | -13.6%
31 | CN1C(=O)C(CC(=O)Nc2ccccc2)S/C1=N/c1nccs1 (centres unmarked) | 1.94%
32 | O=C(CSCc1c(F)cccc1Cl)NCc1cccnc1 | -4.2%
33 | CN(C)C1C(=O)C(C(N)=O)=C(O)C2(O)C(=O)C3=C(O)c4c(O)cccc4C(C)(O)C3C(O)C12 (centres unmarked) | 8.05%
34 | Cc1ccc(-n2nc3c(c2NC(=O)c2cc4ccccc4o2)CS(=O)(=O)C3)cc1 | 12.5%
35 | CCOC(=O)C1CN(S(=O)(=O)c2cc(OC)ccc2OC)C1 | 16.2%
36 | Cn1c(N)c(C(=O)CSc2nc3ccccc3c(=O)n2CCCN2CCOCC2)c(=O)n(C)c1=O | 10.7%
37 | O=Cc1c(NCCc2cccc(F)c2)c2ccccc2[nH]c1=O | 8.81%
38 | CCOC(=O)C1CCN(C(=O)COc2ccc(N(C)S(=O)(=O)c3cccs3)cc2)CC1 | -8.97%
39 | O=C1CNC(=O)/C(=C/c2ccco2)N1 | 19.2%
40 | O=C(COC(=O)c1cc(-c2cccs2)nc2ccccc12)NC1CCS(=O)(=O)C1 (centres unmarked) | 5.26%
41 | Oc1ccc(/C=N/NC(=S)NCc2ccco2)cc1 | 5.21%
42 | C=C(C)CSc1nc(N)c2c(C)c(C)sc2n1 | 10.3%
43 | COc1ccc2cc3cc(C(=O)Nc4ccccc4N4CCN(C)CC4)oc3nc2c1 | 15.8%
44 | O=C(O)C(=O)O.O=C(c1cccs1)N1CCN(Cc2ccncc2)CC1 | 2.14%
45 | Cc1cc(=O)oc(C)c1C(=O)N1CCCc2ccccc21 | 7.12%
46 | COc1cccc(/C(O)=C2/C(=O)C(=O)N(CCCN3CCOCC3)C2c2ccncc2)c1 (centres unmarked) | 17.3%

Row | Compound | hERG current change (%, negative = inhibition) at 1uM
47 | Cc1ccc2c(c1)N(C(=O)CCC(=O)N1CCN(c3ccccn3)CC1)CCO2 | -12.3%
48 | CCOC(=O)c1ccc(NS(=O)(=O)c2ccc(Cl)nc2)cc1 | 8.99%
49 | Cc1cc(C)cc(N(CC(=O)NC2CCCC2)C(=O)CCC(=O)Nc2nc(C)cs2)c1 | 5.09%
50 | N#C/C(=C\c1cn[nH]c1-c1ccc(Cl)cc1)C(=O)NC1CC1 | 11.1%
51 | COc1ccccc1CNc1ccc2nnc(CCNC(=O)c3ccccc3)n2n1 | 9.44%
52 | O=C1C=C(Nc2ccc(O)cc2)CC(c2ccco2)C1 (centres unmarked) | 4.41%
53 | O=C(/C=C/c1ccc(F)cc1)NC(=S)N1C[C@H]2C[C@H](C1)c1cccc(=O)n1C2 | -6.44%
54 | Cc1ccccc1NS(=O)(=O)c1ccc(C(=O)NNC(=O)c2ccccc2O)cc1 | 7.38%
55 | Cc1ccc(Cn2c(=O)c3c(ncn3C)n(C)c2=O)cc1 | 11.8%
56 | COc1ccc2cc[nH]c2c1 | 12.3%
57 | Cc1ccc(CNC2=NCCS2)cc1 | 12.7%
58 | CCOc1ccccc1NC(=O)Cn1nnc(C(=O)NCc2ccco2)c1N | 12.1%
59 | CCOc1ccccc1CN1CCNC(=O)C1CC(=O)NCCCn1cccn1 (centres unmarked) | 8.63%
60 | CCCC(=O)NCc1ccc2c(c1)cc(C)n2C | 11.2%
61 | O=C(Nc1nccs1)c1ccccc1Br | -20.3%
62 | CCOC(=O)c1ccc(NC(=O)c2ccc(CO)c(C(=O)NC3CCN(C(=O)OCC)CC3)c2)cc1 | 19%
63 | CC(C)N(C(=O)C[n+]1ccc(/C=N/O)cc1)C(C)C | 8.44%
64 | COc1cccc(C(=O)N(C)CC(=O)Nc2ccc(F)c(F)c2F)c1 | 7.4%
65 | COCCNC(=O)c1cc(C(=O)CC(C)C)c[nH]1 | 12.7%
66 | Cc1ccc(C(=O)Nc2ccc3cn[nH]c3c2)cc1S(=O)(=O)N1CCOCC1 | 1.29%
67 | Cc1nonc1OCCCNc1ccc([N+](=O)[O-])cc1Cl | -6.64%
68 | O=c1nc(SCc2cccc(C(F)(F)F)c2)nc2ccccn12 | -13.3%
69 | Cc1nn2c3ccccc3n(C)c2nc1=O | 12.9%

Row | Compound | hERG current change (%, negative = inhibition) at 1uM
70 | Cc1cnc(NC(=O)C2CCCO2)s1 (centres unmarked) | 5.44%
71 | COc1ccc(C(CNC(=O)c2ccc(S(=O)(=O)N(C)C)cc2)N2CCCC2)cc1 (centres unmarked) | 6.28%
72 | COc1ccc(CNC(=O)/C=C/c2cc([N+](=O)[O-])ccc2OC(F)F)cc1OC | 17.2%
73 | Cc1ccc(OC(=O)c2cccc([N+](=O)[O-])c2)c(-n2nc3ccccc3n2)c1 | 11.1%
74 | COc1ccc(-c2nn(-c3ccccc3)cc2CNCCN2CCOC2=O)c(F)c1 | 0.59%
75 | O=C(CSc1nc(-c2ccc(F)cc2)cc(C(F)(F)F)n1)Nc1ccc2c(c1)OCO2 | 6.32%
76 | Cc1ccc(C(C[N+](=O)[O-])c2c(N)n(C)c(=O)n(C)c2=O)cc1 (centres unmarked) | 8.69%
77 | O=C(Cn1nnc(-c2ccc(F)cc2)n1)Nc1ccc2c(c1)OCCO2 | 8.32%
78 | O=c1c2cc(F)ccc2sn1-c1ccccc1 | 9.94%
79 | COc1ccc(Cl)cc1NC(=O)C(=O)NC1CCCCCC1 | 9.7%
80 | C=CCn1c(=O)/c(=C2/Sc3cc(OC)ccc3N2C)s/c1=C1\C(=O)N(CC)C(=S)N1C | 8.41%
81 | O=C1CC(N2CCN(Cc3ccc(Cl)cc3)CC2)C(=O)N1CCc1ccccc1 (centres unmarked) | -13%
82 | O=C(O)C1CC=CCC1C(=O)NCc1ccc(Cl)c(Cl)c1 (centres unmarked) | -1.22%
83 | CC(=O)c1ccc(NC(=S)Nc2ccc(N3CCOCC3)cc2)cc1.Cl | 6.39%
84 | COc1ccc(-n2c(Cc3cccn3C)nnc2SCC(=O)Nc2cccc(OC)c2)cc1 | 6.85%
85 | CC(=O)Oc1c(Cl)c(N2CCOCC2)c(OC(C)=O)c2ccccc12 | -9.93%
86 | CC(C)(C)N1C(=O)c2ccccc2NC(=O)N1Cc1ccccc1 | 12.1%
87 | COc1cccc(CN2CCN(C(=O)c3cccs3)CC2)c1OC | 8.8%
88 | Cc1ccc(-c2csc3ncnc(N4CCN(Cc5ccccc5)CC4)c23)cc1 | 22.9%
89 | Cc1ncc([N+](=O)[O-])n1CC(=O)NC1CCCC1 | 4.26%
